Experimental data from PubChem BioAssay AID1461 (National Center for Advancing Translational Sciences (NCATS), 2008).
In all, about 220,000 compounds went through this assay and about 2,300 (1%) were called active. The shares of active, inactive and inconclusive entries below differ from those in the screen. Calls follow the shape of the dose curve; as a rule, active = well fitted inhibition curve with a large enough effect; inconclusive = small, poorly fitted or top-dose-only effect, or effect the other way; inactive = no such curve, though single readings can be large or run the other way. Potencies of inconclusive entries are left out as doubtful fits.

The compounds below were run against Neuropeptide S receptor (Homo sapiens) (UniProt Q6W5P4) (assay: qHTS Assay for Antagonists of the Neuropeptide S Receptor: cAMP Signal Transduction). Conditions: CHO-NPSR cells, cAMP TR-FRET, antagonist mode; series mostly up to 38.3 µM.
UniProt Q6W5P4, sequence (Q6W5P4 whole entry, looked up): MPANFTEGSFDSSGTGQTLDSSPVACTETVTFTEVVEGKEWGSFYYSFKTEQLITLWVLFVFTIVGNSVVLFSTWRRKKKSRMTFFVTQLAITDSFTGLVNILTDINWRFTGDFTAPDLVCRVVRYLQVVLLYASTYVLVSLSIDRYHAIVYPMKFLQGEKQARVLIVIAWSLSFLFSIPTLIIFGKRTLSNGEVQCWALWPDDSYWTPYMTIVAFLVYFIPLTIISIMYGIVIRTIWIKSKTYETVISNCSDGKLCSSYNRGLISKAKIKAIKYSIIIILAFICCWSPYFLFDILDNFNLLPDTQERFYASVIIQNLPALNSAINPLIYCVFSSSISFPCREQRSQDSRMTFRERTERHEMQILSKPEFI
Also: nearly all actives have a fitted effect of over 50% in size.
Potency is read from the fitted curve at half-maximal effect; tags tell the direction and shape of the fitted curve.

Which Potency does the source give for Cc1ccc(S(=O)(=O)N(C)C)cc1NC(=O)c1cc(C(C)(C)C)nn1Cc1ccccc1 here?
The Potency was inconclusive [activator, partial curve].

Which Potency does the source give for O=C1c2cccnc2C(Nc2ccc(S(=O)(=O)N3CCCCCC3)cc2)N1Cc1ccccc1 (stereo not given) here?
The Potency was inconclusive [inhibitor, partial curve].

For CCOC(=O)c1ccc(Nc2sc(C(=O)c3cccc([N+](=O)[O-])c3)c(N)c2C#N)cc1, which Potency is on record?
The Potency was “inactive”.

Which Potency does the source give for COc1cc(N2CCCC2)c(OC)cc1/C=C(/C#N)c1cccc(Br)c1 here?
The Potency was inconclusive [inhibitor, single point].

With O=C(c1c[nH]c(C(=O)N2CCN(c3ccccc3F)CC2)c1)c1cccc(Cl)c1Cl as the compound, how does the Potency read?
Its Potency is “inactive”.

For O=C(c1cc(-c2cccc(O)c2)on1)N1CCN(C(c2ccccc2)c2ccccc2)CC1, which Potency is on record?
Its Potency is inconclusive [inhibitor, single point].

Which Potency does the source give for CCC(=O)N(CCC1(C(C)C)CCOC(C)(C)C1)C(C)c1cccs1 (stereo not given) here?
The Potency was inconclusive [inhibitor, single point].

Which Potency does the source give for Cn1c(=O)[nH]c(=O)c2c1nc(SCCN1CCOCC1)n2CCCc1ccccc1 here?
Its Potency is “inactive”.

For COc1ccc(SC[C@H](Cc2ccccc2)N2CCN(CCc3ccccc3)CCC2=O)cc1, which Potency is on record?
Its Potency is inconclusive [inhibitor, single point].

Which Potency does the source give for COc1cccc(C(=O)Oc2c(CN3CCOCC3)cc(Cl)c3cccnc23)c1 here?
Its Potency is active: 10 µM.

How did the Potency turn out when O=C(O)C1CCC(NSc2ccccc2[N+](=O)[O-])CC1 (stereo not given) was run?
Its Potency is inconclusive [activator, single point].

How did the Potency turn out when O=C(O)C1C2CCC(C2)C1C(=O)NCc1ccco1 (stereo not given) was run?
The Potency was “inactive”.

Which Potency does the source give for Cc1nn(-c2ccccc2)c2sc(C(=O)N3CCc4ccccc4C3)cc12 here?
The Potency was inconclusive [inhibitor, single point].

Which Potency does the source give for COc1ccc2nc(NC(=O)CSc3nnnn3C3CCCCC3)sc2c1 here?
The Potency was inconclusive [inhibitor, single point].

Which Potency does the source give for CCOC(=O)/C(=C\c1ccc(Cl)cc1)c1nc2sc(C)c(C)c2c(=O)[nH]1 here?
The Potency was active: 7.94 µM.

For NC1=NC[C@H](CC2CCCCC2)N1CCc1cc(C(F)(F)F)cc(C(F)(F)F)c1, which Potency is on record?
The Potency was active: 10 µM.

For COc1ccc(O)c(/C=N/Nc2nc(Nc3ccccc3)nc(-n3nc(C)cc3C)n2)c1, which Potency is on record?
Its Potency is active: 1.26 µM.

For CC1CCc2cc(F)ccc2N1C(=O)CCl (stereo not given), which Potency is on record?
The Potency was “inactive”.

How did the Potency turn out when Cc1cc(C(=O)CN2C(=O)c3ccccc3S2(=O)=O)c(C)n1CC1CCCO1 (stereo not given) was run?
The Potency was “inactive”.

For COc1ccc(N2CCN(CC(=O)Nc3ccc(-n4cnnn4)cc3)CC2)cc1, which Potency is on record?
The Potency was “inactive”.
